Reference: the supplement of paper PMC10126150
Values marked as one replicate rest on one cluster of the flow cell; about a third of the high ones do not repeat.

These sequences were tested on ATP (assay: switch fluorescence ratio, 500 uM ATP over buffer (Cy3 cluster intensity, sum of 5 cycles each) (fold (ratio)); higher = stronger signal-on switching upon ATP binding; sequences stand for … in TCGTCGGCAGCGTCAGATGTGTATAAGAGACAGTTTTTTTTTTTTTTTTTTTTTTTTT…TC). Details: aptamer strand: ATP DNA aptamer (quencher-CACCTGGGGGAGTATTGCGGAGGAAGG + anchor), 100 nM annealed; ATP concentration: 500 uM; one replicate.
Method in brief: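 Five buffer/ATP imaging cycles were run on Cy3-labelled switching-strand clusters on a modified Illumina MiSeq flow-cell, with NaOH stripping and re-annealing between cycles. In each cycle, clusters annealed to 100 nM quencher-labelled ATP aptamer were imaged in selection buffer, then after 15 min with 500 uM ATP at 22 °C. Per cluster, the fluorescence ratio is summed target-cycle over summed buffer-cycle Cy3 intensity, averaged per switch-domain sequence. Only clusters within 100-1000 RFU were kept.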
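Further: ATP exposure 15 min at 22 °C before imaging.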

Sequence | switch fluorescence ratio
TGTTCGCAGC | 1.3
TGTTCGGCTT | 1.02
TGTTCGGTGG | 1.04
TGTTCTTTTC | 0.983
TGTTGAATCG | 1.01
TGTTGAATGG | 0.966
TGTTGACCGC | 1.02
TGTTGAGCGA | 1.05
TGTTGAGCTA | 1
TGTTGAGTGA | 0.996
TGTTGATCGG | 1.01
TGTTGATCTT | 0.975
TGTTGCAGCA | 1.01
TGTTGCGGTC | 1.06
TGTTGCTTGA | 0.991
TGTTGGAATT | 1.02
TGTTGGACAG | 0.98
TGTTGGCAAC | 0.952
TGTTGTCATT | 0.955
TGTTGTCGT | 0.918
TGTTGTCGTT | 1.02
TGTTGTGGGC | 0.998
TGTTTAACCC | 1.01
TGTTTAACGA | 1.01
TGTTTAAGTC | 0.946
TGTTTAGCCT | 1.06

Sequence | switch fluorescence ratio
TGTTTATTGC | 0.995
TGTTTCAGGT | 1.06
TGTTTCCGCT | 1.05
TGTTTCGCGG | 0.991
TGTTTGCATT | 1.01
TGTTTGCCAC | 0.984
TGTTTTGATA | 0.982
TTAAAAACGG | 1.25
TTAAAAAGCT | 1.04
TTAAAATAGT | 0.993
TTAAACCCAA | 0.973
TTAAACCGAG | 1.8
TTAAAGCCTC | 1.04
TTAAAGCGAA | 1
TTAAATAGGC | 1.01
TTAAATGAGT | 1.06
TTAACAGTAG | 1
TTAACAGTCA | 1
TTAACCAAAG | 0.962
TTAACCAGGT | 1.08
TTAACCGAAT | 1.05
TTAACGGTT | 0.946
TTAACTGTAC | 1.58
TTAAGATACT | 1.06
TTAAGATGTG | 0.971
TTAAGCATGG | 1.06

Sequence | switch fluorescence ratio
TTAAGCCCTA | 1.03
TTAAGCGGGG | 0.992
TTAAGGAAGT | 0.929
TTAAGGGCGG | 1.05
TTAAGGTATA | 1.04
TTAAGTTGG | 0.948
TTAATAGGGT | 0.986
TTAATCAGGG | 0.973
TTAATCCGTG | 1.03
TTAATCCTGC | 1.04
TTAATCTGG | 0.974
TTAATGCCTT | 1.12
TTAATGGCCT | 1.01
TTAATTATTA | 0.993
TTAATTTCT | 1.03
TTACAATGT | 1.48
TTACAGTCG | 1.05
TTACATGAGT | 1.02
TTACATTCAG | 1.03
TTACATTGCA | 1.02
TTACCCAGGC | 1.29
TTACCCCAAC | 1.17
TTACCCCAAG | 1.06
TTACCCCGCA | 2.68
TTACCGGAAG | 1.05
TTACCGTAGG | 0.995

Sequence | switch fluorescence ratio
TTACCTTGTG | 1.02
TTACGCCACC | 1.96
TTACGCCCCT | 1.24
TTACGCTTAA | 1.11
TTACGGCTAT | 1.1
TTACGGCTTT | 1.05
TTACGGGATA | 1.06
TTACGTGAAC | 1.21
TTACGTGCCT | 1.01
TTACGTGGGT | 1.02
TTACGTTCGG | 0.998
TTACGTTTGA | 1.01
TTACTAAAGC | 1.05
TTACTACCCC | 1.67
TTACTATGAC | 1.03
TTACTCGAGA | 1.02
TTACTCGTGT | 0.989
TTACTGATC | 1.04
TTACTGGCAA | 1.28
TTACTGGTGA | 1.09
TTACTGGTT | 1.01
TTACTGTTT | 0.994
TTACTTAAGC | 1.04
TTACTTCTT | 1
TTACTTGGAT | 1.01
TTACTTTACG | 1.37

Sequence | switch fluorescence ratio
TTAGAAGCGT | 1.02
TTAGACATAG | 1.06
TTAGAGCCGA | 0.977
TTAGAGGAGC | 1.02
TTAGAGGTGA | 0.99
TTAGAGTAAC | 0.997
TTAGAGTTGG | 1.01
TTAGATGCTT | 0.978
TTAGATGGCA | 1.27
TTAGATTAAC | 1.01
TTAGCACTCT | 1
TTAGCCAAGT | 0.969
TTAGCCAGAT | 1
TTAGCGCAAC | 1.34
TTAGCGGAAC | 1.21
TTAGGACCGG | 0.994
TTAGGACGAC | 1.05
TTAGGATCTA | 0.967
TTAGGATGAC | 1.01
TTAGGCAGCA | 1.05
TTAGGCCCG | 0.983
TTAGGCCGAA | 1.05
TTAGGGCCGT | 0.963
TTAGGTCGGA | 1.01
TTAGGTCGTT | 0.993
TTAGGTGGGA | 0.945

Sequence | switch fluorescence ratio
TTAGGTTAAC | 1.01
TTAGTATGAG | 1.05
TTAGTATTGT | 0.991
TTAGTCGT | 0.997
TTAGTGAGAG | 0.99
TTAGTGAGCT | 1.02
TTAGTTATGA | 0.937
TTAGTTGCT | 0.966
TTATAAAGGC | 1.11
TTATAATAAA | 0.995
TTATACTTCT | 1
TTATAGCCGG | 0.966
TTATAGGGGC | 0.961
TTATATAAAC | 1.04
TTATATTAAC | 1.04
TTATCAGAAC | 1.01
TTATCAGCTT | 1.08
TTATCAGTAC | 1.63
TTATCAGTAT | 0.982
TTATCATGAG | 1.02
TTATCATTCT | 1.02
TTATCCCCGG | 1.16
TTATCCGGTC | 0.947
TTATCGCACT | 1.12
TTATCGGCA | 1
TTATCGTCTC | 1.04

Sequence | switch fluorescence ratio
TTATCGTGGA | 0.97
TTATGAGTT | 0.98
TTATGATTGC | 0.975
TTATGCACTC | 1.1
TTATGCATGG | 0.977
TTATGGAGAG | 0.982
TTATGGTCG | 1.07
TTATGTAGCC | 1.06
TTATGTGATG | 1.01
TTATGTGGCG | 1.05
TTATGTTCTG | 0.952
TTATTAACGT | 1.01
TTATTAAGGC | 1.05
TTATTAGCCG | 0.969
TTATTCTCGT | 0.978
TTATTGTTCG | 0.937
TTATTTATGG | 0.99
TTATTTGACA | 1.04
TTCAAAAGAG | 1.01
TTCAAAGTCT | 0.975
TTCAAATTCA | 1.15
TTCAACGCCT | 1.08
TTCAACTACC | 1.1
TTCAAGAAAG | 1
TTCAAGGGAT | 0.967
TTCAAGGTGT | 1.4

Sequence | switch fluorescence ratio
TTCAAGTGAG | 1.01
TTCAATCGGA | 1.01
TTCAATGATG | 1.03
TTCAATTAGG | 0.994
TTCACCAGA | 1.06
TTCACCCGTG | 1
TTCACCGTCA | 1.12
TTCACGAGA | 1.06
TTCACTAGTT | 0.973
TTCACTATGC | 1.03
TTCAGCCAAA | 0.993
TTCAGCGACG | 0.996
TTCAGCTATG | 0.977
TTCAGGAATT | 1.05
TTCAGGAGGT | 0.973
TTCAGGGACC | 1
TTCAGGGGAT | 0.999
TTCAGTGACC | 1.05
TTCAGTGCAA | 1.35
